# Measured values taken from the supplement of paper PMC7125110.
# ± gives the standard error. Variants at the background level are over-represented here.
# B1: glmS ribozyme (parent)
# chain: AUAAAAGCGCCAGAACUACAGAAAUGUAGUUGACGAGGAGGAGGUUUAUCGAAUUUUCGGCGGAUGCCUCCAAA
# Columns and labels:
# Details in all cases: with glucosamine-6-phosphate
# glucosamine-6-phosphate [1] = variants of: B1; test: self-cleavage kobs at 40 uM GlcN6P; higher = faster cleavage; RNA array
# Outline: (§1)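 Barcoded ribozyme variants were transcribed in situ on sequenced MiSeq chips by E. coli RNA polymerase. At 37 °C, a hybridised Cy3 probe tracked them while glucosamine-6-phosphate (40 μM to 10 mM) in HEPES/KCl/Mg(OAc)2 buffer flowed in and tiles were imaged over ~14 h. Per-tile medians of signals normalised to baseline and to non-cleaving reference variants were fit to one- or two-exponential decays, giving kobs. kcat and KM came from weighted Michaelis–Menten fits across concentrations.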
# glucosamine-6-phosphate [2] = variants of: B1; test: self-cleavage kobs at 640 uM GlcN6P; higher = faster cleavage; RNA array
# Outline: as §1
# glucosamine-6-phosphate [3] = variants of: B1; test: self-cleavage kobs at 10000 uM GlcN6P; higher = faster cleavage; RNA array
# Outline: as §1
# glucosamine-6-phosphate [4] = variants of: B1; test: self-cleavage kobs at 160 uM GlcN6P; higher = faster cleavage; RNA array
# Outline: as §1
# glucosamine-6-phosphate [5] = variants of: B1; test: self-cleavage kobs at 2500 uM GlcN6P; higher = faster cleavage; RNA array
# Outline: as §1
Variant,self-cleavage kobs at 40 uM GlcN6P (glucosamine-6-phosphate [1]),self-cleavage kobs at 640 uM GlcN6P (glucosamine-6-phosphate [2]),self-cleavage kobs at 10000 uM GlcN6P (glucosamine-6-phosphate [3]),self-cleavage kobs at 160 uM GlcN6P (glucosamine-6-phosphate [4]),self-cleavage kobs at 2500 uM GlcN6P (glucosamine-6-phosphate [5])
U57A C58G,< 1e-05 s⁻¹,,,,
U57A C61G,< 1e-05 s⁻¹,,,,
U57A G60C,< 1e-05 s⁻¹,< 1e-05 s⁻¹,< 1e-05 s⁻¹,,
U57A G60U,< 1e-05 s⁻¹,< 1e-05 s⁻¹,< 1e-05 s⁻¹,< 1e-05 s⁻¹,
U57G C67U,< 1e-05 s⁻¹,,,,
U57G G60A,< 1e-05 s⁻¹,< 1e-05 s⁻¹,,< 1e-05 s⁻¹,< 1e-05 s⁻¹
C58A G60C C67U,< 1e-05 s⁻¹,< 1e-05 s⁻¹,< 1e-05 s⁻¹,,
C58A G63A,< 1e-05 s⁻¹,,< 1e-05 s⁻¹,,
C58A G63A G66C C67G,< 1e-05 s⁻¹,,< 1e-05 s⁻¹,,
C58A G63C,< 1e-05 s⁻¹,< 1e-05 s⁻¹,< 1e-05 s⁻¹,< 1e-05 s⁻¹,
C58G G60U,< 1e-05 s⁻¹,< 1e-05 s⁻¹,,< 1e-05 s⁻¹,< 1e-05 s⁻¹
C58U A64G C70A,< 1e-05 s⁻¹,,,,
C58U G62A,< 1e-05 s⁻¹,< 1e-05 s⁻¹,< 1e-05 s⁻¹,< 1e-05 s⁻¹,< 1e-05 s⁻¹
C58U G66A,< 1e-05 s⁻¹,,,,
G59C G63U,< 1e-05 s⁻¹,< 1e-05 s⁻¹,< 1e-05 s⁻¹,,< 1e-05 s⁻¹
G59C U65C,< 1e-05 s⁻¹,,< 1e-05 s⁻¹,,
G59U,< 1e-05 s⁻¹,,,,
G59U A64G,< 1e-05 s⁻¹,,,,
G59U C71A,< 1e-05 s⁻¹,,,,
G60A C61A,< 1e-05 s⁻¹,,,< 1e-05 s⁻¹,
G60C C67A C71U,< 1e-05 s⁻¹,,,,
G60U C70G,< 1e-05 s⁻¹,,< 1e-05 s⁻¹,,
G60U C70U,< 1e-05 s⁻¹,< 1e-05 s⁻¹,< 1e-05 s⁻¹,< 1e-05 s⁻¹,
G60U G62A C70U,< 1e-05 s⁻¹,,,,
C61A C70U,< 1e-05 s⁻¹,,,,
C61G A64U,< 1e-05 s⁻¹,,< 1e-05 s⁻¹,< 1e-05 s⁻¹,
C61G C71G,3.55e-05 ± 1.3e-05 s⁻¹,,,,
